Assay results published in ChEMBL document CHEMBL1201862, “PubChem BioAssay data set” (2004).

tested on: NCI-H322M; assay: NCI anticancer screen, dose series, 48 h

| SMILES | GI50 |
| --- | --- |
| COc1c(-c2ccc3c(c2)OCO3)oc2cc3c(c(OC)c2c1=O)OCO3 [MELITERNATIN] | inactive: 12.6 µM |
| N[C@@H](Cc1ccc(N(CCCl)CCCl)cc1)C(=O)O [MELPHALAN HYDROCHLORIDE] | inactive: 82.4 µM |
| O=C1C(O)=C(CCCCCCCCC2CCCCC2)C(=O)c2ccccc21 [MENOCTONE] | inactive: 15.7 µM |
| COc1ccc(O)cc1 [MEQUINOL] | inactive: > 100 µM |
| c1ccc2c(c1)Sc1ccccc1N2CC1CN2CCC1CC2 (stereo not drawn) [MEQUITAZINE] | inactive: 11.5 µM |
| CN1CCCCC1CCN1c2ccccc2Sc2ccc([S+](C)[O-])cc21 (stereo not drawn) [MESORIDAZINE] | inactive: > 100 µM |
| CCOS(C)(=O)=O [METHANESULFONIC ACID ETHYL ESTER] | inactive: > 100 µM |
| COS(C)(=O)=O [METHANESULFONIC ACID METHYL ESTER] | inactive: > 2 µM |
| CN1CCC(CN2c3ccccc3Sc3ccccc32)C1 (stereo not drawn) [METHDILAZINE HYDROCHLORIDE] | inactive: 17.2 µM |
| CCN(CC)C(=S)SC [METHYLDIETHYL CARBAMODITHIOATE] | inactive: > 100 µM |
| CC[C@H](C)C(=O)O[C@H]1CCC=C2C=C[C@H](C)[C@H](CC[C@@H]3C[C@@H](O)CC(=O)O3)[C@H]21 [MEVASTATIN] | inactive: 44.2 µM |
| Clc1ccc(COC(Cn2ccnc2)c2ccc(Cl)cc2Cl)c(Cl)c1 (stereo not drawn) [MICONAZOLE] | inactive: 13.2 µM |
| CC(C)C1=Cc2ccc3c(c2C(=O)C1=O)CCCC3(C)C [MILTIRONE] | inactive: 15.5 µM |
| NC(Cn1ccc(=O)c(O)c1)C(=O)O (stereo not drawn) [MIMOSINE] | inactive: > 100 µM |
| CN(C)CCN1C(=O)c2cccc3cc([N+](=O)[O-])cc(c23)C1=O [MITONAFIDE] | inactive: 1.19 µM |
| COc1cc(C(=O)O)cc2c1[nH]c1ccccc12 [MUKOEIC ACID] | inactive: > 25 µM |
| O=c1c(O)c(-c2cc(O)c(O)c(O)c2)oc2cc(O)cc(O)c12 [MYRICETIN] | inactive: 30.2 µM |
| O=C(/C=C/c1ccc(O)cc1)NCCc1ccc(O)cc1 [N-P-COUMAROYL TYRAMINE] | inactive: 10.2 µM |
| CC1OC(CC(=O)O)CC2=C1C(=O)c1c(O)cccc1C2=O (stereo not drawn) [NANAOMYCIN] | inactive: 1.62 µM |
| O=C1C=CC(=O)c2c(O)ccc(O)c21 [NAPHTHAZALIN] | inactive: 8.61 µM |
| O=C1N[C@@H]2C(=C[C@H](O)[C@@H](O)[C@H]2O)c2cc3c(c(O)c21)OCO3 [NARCICLASINE] | active: 0.045 µM |
| OC[C@H]1O[C@@H](n2cnc3cncnc32)[C@H](O)[C@@H]1O [NEBULARINE] | inactive: 1.69 µM |
| CO[C@H]1[C@H](O)[C@H](O[C@H]2CC[C@@]3(C)[C@H](CC[C@@H]4[C@@H]3CC[C@]3(C)[C@@H](C5=CC(=O)OC5)CC[C@]43O)C2)O[C@@H](C)[C@@H]1O [NERIIFOLIN] | active: 0.000904 µM |
| CO[C@H]1[C@@H](O)[C@@H](C)O[C@@H](O[C@H]2CC[C@@]3(C)[C@H](CC[C@@H]4[C@@H]3CC[C@]3(C)[C@@H](C5=CC(=O)OC5)[C@@H](OC(C)=O)C[C@]43O)C2)[C@@H]1O [NERITALOSIDE] | active: 0.0409 µM |
| CC(=O)Oc1ccccc1C(=O)Nc1ncc([N+](=O)[O-])s1 [NITAZOXANIDE] | inactive: 18.7 µM |
| COc1cc2c[n+](C)c3c4cc5c(cc4ccc3c2cc1OC)OCO5 [NITIDINE CHLORIDE] | inactive: 3.52 µM |

| SMILES | GI50 |
| --- | --- |
| O=[N+]([O-])O [NITRIC ACID] | inactive: > 100 µM |
| Cn1c2ccccc2c(=O)c2c(O)cc3c(c21)C=CC(C)(C)O3 [NORACRONYCINE] | inactive: > 25 µM |
| CC(Cc1ccc(O)c(O)c1)C(C)Cc1ccc(O)c(O)c1 (stereo not drawn) [NORDIHYDROGUAIARETIC ACID] | inactive: 23.8 µM |
| CC1=Cc2cccc(C)c2C(=O)C1=O [O-HIBISCANONE] | inactive: 22.9 µM |
| CO[C@H]1[C@@H](O)[C@@H](C)O[C@@H](O[C@H]2CC[C@@]3(C)[C@H](CC[C@@H]4[C@@H]3CC[C@]3(C)[C@@H](C5=CC(=O)OC5)CC[C@]43O)C2)[C@@H]1O [ODOROSIDE H] | active: 0.00652 µM |
| CCCCCCCC/C=C\CCCCCCCC(=O)O [OLEIC ACID] | inactive: 417 µM |
| Cc1[nH]c(/C=C2\C(=O)Nc3ccccc32)c(C)c1CCC(=O)O [ORANTINIB] | inactive: 30.1 µM |
| CCCN(CCC)c1c([N+](=O)[O-])cc(S(N)(=O)=O)cc1[N+](=O)[O-] [ORYZALIN] | inactive: 17.7 µM |
| CCN(CC)CC1CCCCN1CC(=O)N1c2ccccc2C(=O)Nc2cccnc21 (stereo not drawn) [OTENZEPAD] | inactive: 55.8 µM |
| COc1ccc2c(c1)N(CCC1CCCCN1C)c1ccccc1S2 (stereo not drawn) [OXYRIDAZINE] | inactive: 14.4 µM |
| CC(=O)O[C@H]1C(=O)[C@]2(C)[C@@H](OC(=O)OCC(O)CO)C[C@H]3OC[C@@]3(OC(C)=O)[C@H]2[C@H](OC(=O)c2ccccc2)[C@]2(O)C[C@H](OC(=O)[C@H](O)[C@@H](NC(=O)c3ccccc3)c3ccccc3)C(C)=C1C2(C)C (stereo partly drawn) [PACLITAXEL CERIBATE] | active: < 0.01 µM |
| COc1cc(O)c2c(O)c3c(=O)oc(C)cc3c(OC)c2c1 [PAEPALANTINE] | inactive: 26.1 µM |
| O=P(O)(NCCCl)NCCCl [PALIFOSFAMIDE] | inactive: > 10 µM |
| C[n+]1ccc(-c2cc[n+](C)cc2)cc1 [PARAQUAT DICHLORIDE] | inactive: > 24.9 µM |
| C/C(=C\c1csc(C)n1)[C@@H]1C[C@@H]2O[C@]2(C)CCC[C@H](C)[C@H](O)[C@@H](C)C(=O)C(C)(C)[C@@H](O)CC(=O)O1 [PATUPILONE] | active: < 0.0001 µM |
| O=C1Cc2c([nH]c3ccccc23)-c2ccccc2N1 [PAULLONE] | inactive: 27.9 µM |
| COc1c(O)c(OC)c(C(=O)/C=C/c2ccccc2)c(O)c1OC [PEDICIN] | inactive: 86.9 µM |
| COc1nc(C(Cl)(Cl)Cl)c(Cl)c(OC)c1Cl [PENCLOMEDINE] | inactive: 43 µM |
| Oc1c(Cl)c(Cl)c(Cl)c(Cl)c1Cl [PENTACHLOROPHENOL] | inactive: 25.2 µM |
| CCCCCCCCCCCCCCCCCCOP(=O)([O-])OC1CC[N+](C)(C)CC1 [PERIFOSINE] | inactive: 14 µM |
| C=C(C)[C@@H]1CC=C(CO)CC1 [PERILLYL ALCOHOL] | inactive: 292 µM |
| O=S1(=O)OC(c2ccc(O)cc2)(c2ccc(O)cc2)c2ccccc21 [PHENOLSULFONPHTHALEIN] | inactive: > 100 µM |
| O=S(=O)(F)Cc1ccccc1 [PHENYLMETHYLSULFONYLFLUORIDE] | inactive: > 100 µM |
| OC(CNc1ccccn1)c1ccccc1 (stereo not drawn) [PHENYRAMIDOL HYDROCHLORIDE] | inactive: > 100 µM |
| O=[N+]([O-])c1nccn1CC(O)CN1CCCCC1 (stereo not drawn) [PIMONIDAZOLE] | inactive: > 100 µM |
| Cc1cccc(Nc2cc(Cl)nc(SCC(=O)O)n2)c1C [PIRINIXIC ACID] | inactive: > 100 µM |

| SMILES | GI50 |
| --- | --- |
| COc1ccc(OC)c(Cc2cnc3nc(N)nc(N)c3c2C)c1 [PIRITREXIM ISETHIONATE] | active: 0.168 µM |
| CC1=CC(=O)c2c(O)cccc2C1=O [PLUMBAGIN] | inactive: 16.3 µM |
| C/C=C1/C(=O)O[C@]23C=C[C@@H]4C(C(=O)OC)=CO[C@H](O[C@@H]12)[C@@H]43 [PLUMERICIN] | inactive: 2.37 µM |
| CC(C)=CCc1c2c(c3occ(-c4ccc(O)c(O)c4)c(=O)c3c1O)C=CC(C)(C)O2 [POMIFERIN] | inactive: 3.74 µM |
| C=C(CC[C@@H](C(=O)O)[C@H]1[C@H](O)C[C@@]2(C)C3=CC[C@@H](C(=C)C)[C@](C)(CCC(=O)O)C3=CC[C@]12C)C(C)C [PORICOIC ACID A] | inactive: 17.7 µM |
| C[C@]12C=CC(=O)C=C1CC[C@@H]1[C@@H]2C(=O)C[C@@]2(C)[C@H]1CC[C@]2(O)C(=O)CO [PREDNISONE] | inactive: > 100 µM |
| COc1cc(NC(C)CCCN)c2ncccc2c1 (stereo not drawn) [PRIMAQUINE PHOSPHATE] | inactive: 55.1 µM |
| CC(C)(Sc1cc(C(C)(C)C)c(O)c(C(C)(C)C)c1)Sc1cc(C(C)(C)C)c(O)c(C(C)(C)C)c1 [PROBUCOL] | inactive: > 100 µM |
| CNNCc1ccc(C(=O)NC(C)C)cc1 [PROCARBAZINE HYDROCHLORIDE] | inactive: > 500 µM |
| O=C(O)CCc1nc2ccccc2[nH]1 [PROCODAZOLE] | inactive: > 100 µM |
| CCCC1(CC(=O)O)OCCc2c1[nH]c1ccccc21 (stereo not drawn) [PRODOLIC ACID] | inactive: > 100 µM |
| CC(=O)[C@H]1CC[C@H]2[C@@H]3CCC4=CC(=O)CC[C@]4(C)[C@H]3CC[C@]12C [PROGESTERONE] | inactive: 35.3 µM |
| O=C(O)[C@@H]1CCCN1 [PROLINE] | inactive: > 100 µM |
| COc1cc2c3c(c1OC)C1(C=CC(=O)C=C1)C[C@H]3N(C)CC2 [PRONUCIFERINE] | inactive: > 100 µM |
| CCCOC(=O)c1cc(O)c(O)c(O)c1 [PROPYL GALLATE] | inactive: 54.2 µM |
| OC(CCl)CN1CC[N+]2(CC1)CC[N+]1(CCN(CC(O)CCl)CC1)CC2 (stereo not drawn) [PROSPIDIUM CHLORIDE] | inactive: > 50 µM |
| CN[C@@H](C)[C@@H](O)c1ccccc1 [PSEUDOEPHEDRINE HYDROCHLORIDE] | inactive: > 100 µM |
| c1cn[nH]c1 [PYRAZOLE] | inactive: > 10 µM |
| O=C(CCCCCCC(=O)Nc1cccnc1)NO [PYROXAMIDE] | inactive: 3.1 µM |
| Oc1ccc2c(c1)CC[N+]1=C2CCC2CCCC21 (stereo not drawn) [QUINDONIUM BROMIDE] | inactive: > 100 µM |
| Nc1n[nH]c2nc3ccccc3nc12 [QUINOXALINE1] | inactive: 66.2 µM |
| C[C@@H](Oc1ccc(Oc2cnc3ccc(Cl)cc3n2)cc1)C(=O)O [R(+)XK469] | inactive: > 100 µM |
| Cc1cc(O)c2c(c1)C(=O)C=CC2=O [RAMENTACEONE] | inactive: 19.3 µM and inactive: 20.9 µM |
| NC(Cc1cc(I)c(Oc2ccc(O)c(I)c2)c(I)c1)C(=O)O (stereo not drawn) [RATHYRONINE] | inactive: > 100 µM |
| CC(CN1CC(=O)NC(=O)C1)N1CC(=O)NC(=O)C1 (stereo not drawn) [RAZOXANE] | inactive: 434 µM |
| CC1CC(C)(O)CC(C(O)CC2CC(=O)NC(=O)C2)C1=O (stereo not drawn) [RESACTIN A] | active: 0.0382 µM |

“And” between values parts separate entries of the source, which are not always exact repeats. Equal values may be shown once. Where a name gives a salt, the structure may show the parent alone.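 Growth conditions: 96-well plates. Treatment: test compound, 48 hours, 5 concentrations. Analysis: linear interpolation between bracketing concentrations; unreached endpoints set to highest concentration. GI50: concentration for 50% inhibition of growth.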 The source made the active and inactive calls. No stated cut-off is given here; in the data, active = GI50 up to about 1.1 µM and inactive = higher.
